Measurements from PubChem BioAssay AID624171 (National Center for Advancing Translational Sciences (NCATS), 2012).
The campaign covered roughly 410,000 compounds. About 1,200 (0.29%) were called active. The shares of active, inactive and inconclusive entries below differ from those in the screen. The call rests on the fitted dose curve; in most records, active means well fitted activation curve with a large enough effect; inconclusive means small, poorly fitted or top-dose-only effect; inactive means flat fitted curve, though single readings scatter. A potency beside an inconclusive call is a rough fit, not a confirmed value.

Assay: qHTS of Nrf2 Activators; further: nearly all actives have a fitted effect of over 65% in size; on activation: % of control where 0% means no effect
Settings: AREc32 ARE-luciferase reporter (MCF7-derived line), luminescence, 24 h; activation: at 46.1 µM (top of the series)
Summary of the method: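 Luminescent ARE reporter assay in AREc32_Fluc cells: overnight plating at 37 deg C, 24 hr compound incubation, Steady-Glo added, 30 min RT before reading.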
Potency means the concentration at half of the fitted maximal effect; tags describe the fitted curve by direction and shape.

SMILES	Potency	activation
CN=Cc1c(NC)nc2c(C)cccn2c1=O	inactive	–
CCOC(=O)C(=Cc1c[nH]c2ccc(S(=O)(=O)N(C)C)cc12)C(=O)OCC	inconclusive: 28.2 µM [activator, single point]	–
Cc1ccc(Oc2coc3cc(O)ccc3c2=O)cc1	inactive	–
Cn1c(N2CCN(S(=O)(=O)c3ccc(Cl)cc3)CC2)nc2ccccc21	inactive	–
CC1=CC(=O)C(C(C)C)=C/C1=N/OC(=O)c1cccc([N+](=O)[O-])c1	inconclusive: 28.2 µM [activator, single point]	–
Cc1c(Cl)cccc1NC(=O)NCCOCCn1c(=O)oc2ccccc21	inactive	–
Cc1ccc(CNC(=O)CN2CCCC(C)C2)cc1 (configuration not stated)	inactive	–
CCN(CC)S(=O)(=O)c1ccc2oc(SCC(=O)NC3CC3)nc2c1	inactive	–
O=C(Cn1cc(SCc2ccc(F)cc2)c2ccccc21)N1CCOCC1	inactive	–
COc1ccc(NC(=O)N(Cc2ccco2)C2CCN(C(C)=O)CC2)c(OC)c1	inactive	–
CCNc1ccc(Br)cc(C(=O)/C=C/c2c(Cl)cccc2Cl)c1=O	inconclusive: 3.16 µM [activator, partial curve, poor fit]	–
O=C(N/C=C/c1ccco1)Nc1cccc(Cl)c1	inconclusive: 12.6 µM [activator, single point]	–
O=C(Nc1ncc2c(n1)CC(c1ccco1)CC2=O)c1ccccc1 (configuration not stated)	inconclusive: 12.6 µM [activator, partial curve, poor fit]	–
O=C(Cn1c(=O)ccc2cc(S(=O)(=O)N3CCCC3)ccc21)NCc1ccc(F)cc1	inactive	–
O=C(c1cc(-c2cccs2)on1)N1CCc2ccccc2C1	inconclusive: 35.5 µM [activator, single point]	–
CC(C)Cc1ccc(C(C)CC2=CCC(CN(C)C)C2=O)cc1 (configuration not stated)	inconclusive: 3.16 µM [activator, partial curve, poor fit]	–
Cc1ccnc2ccc(-c3nc4ccccc4o3)cc12	inconclusive: 1.12 µM [activator, full curve, poor fit]	–
Oc1ccc2ccccc2c1CNc1ccc2ccccc2c1	inconclusive: 25.1 µM [activator, single point]	–
O=C(O)c1ccc(N/N=C/C2=C(N3CCOCC3)C(=C\c3ccccc3)/CC2)cc1	inconclusive: 22.4 µM [activator, single point]	–
CCCCC(=O)Nc1cccc(-c2cn3ccccc3n2)c1	inactive	–
CCc1nc2oc3ccccc3c(=O)c2c(=O)n1-c1ccc(C)cc1	inconclusive: 12.6 µM [activator, single point]	–
O=[N+]([O-])c1cccc(/C=N/Nc2nccnc2Cl)c1	inconclusive: 20 µM [activator, partial curve, poor fit]	–
Cc1cc2cc(CCNS(=O)(=O)c3ccc(Br)cc3)c(=O)[nH]c2cc1C	inactive	–
CCCS(=O)(=O)c1nc(S(=O)(=O)c2ccc(C)cc2)c(N2CCC(O)CC2)s1	inconclusive: 14.1 µM [activator, single point]	–

SMILES	Potency	activation
CCCCc1cc(O)c(CCCC)c(O)c1	inconclusive: 20 µM [activator, single point]	–
CC(=O)Nc1cccc(-c2cc(N3CCN(CCO)CC3)n3nccc3n2)c1	–	inactive: 0.0764% [at 9.22 µM]
COc1cc2oc(=O)c(CC(=O)NCCc3ccccc3)c(C)c2cc1Cl	inactive	–
CCc1ccc(/C=C/c2c([N+](=O)[O-])c(=O)n(C)c(=O)n2C)cc1	inconclusive: 3.98 µM [activator, full curve]	–
CCOC(=O)CCn1c(=O)c2cccn2c2cccnc21	inconclusive: 10 µM [activator, partial curve, poor fit]	–
COc1ccc(OC)c(NC(=O)c2nc(S(=O)(=O)Cc3ccccc3)ncc2Cl)c1	inconclusive: 7.08 µM [activator, partial curve]	–
CC(C)NC(=O)N(C)C[C@@H]1Oc2c(NS(=O)(=O)c3ccccc3)cccc2C(=O)N([C@@H](C)CO)C[C@@H]1C	inactive	–
CC(C)c1ccc(NC(=O)C2CCN(S(=O)(=O)c3ccc(Br)s3)CC2)cc1	inactive	–
COc1ccc(/C=C2\SC(N)=NC2=O)cc1	inactive	–
S=c1nc(-c2ccccc2)oc2c1CCCC2	active: 11.2 µM	–
Cc1cc(OCC(=O)N2CCC(O)(c3ccc(Cl)cc3)CC2)c2c(C)cc(=O)oc2c1	inactive	–
N/C(=N\N=C\c1ccco1)SC1CC(=O)N(c2ccccc2)C1=O (configuration not stated)	inconclusive: 3.55 µM [activator, full curve]	–
Cc1noc(C(F)(F)F)c1C(=O)NNC(=O)c1cccc(C(F)(F)F)c1	inconclusive: 12.6 µM [activator, partial curve, poor fit]	–
O=C(CCl)Nc1cccc2ncccc12	inconclusive: 11.2 µM [activator, partial curve]	–
Cc1ccc2nc(-c3cccc(Br)c3)c(CC3CCCCC3)n2c1	inconclusive: 15.8 µM [activator, single point]	–
Nc1nccc(-c2ccc(-n3cccc3)cc2)n1	inconclusive: 6.31 µM [activator, partial curve, poor fit]	–
CSc1nc(-c2ccccc2)nc(NC(C)=O)c1C(C)=O	inconclusive: 10 µM [activator, partial curve, poor fit]	–
C#CCSc1nc(-c2cccs2)ccc1C#N	inconclusive: 8.91 µM [activator, partial curve]	–
O=C(O)COn1c(-c2ccccc2)nc2ccc([N+](=O)[O-])cc21	inconclusive: 12.6 µM [activator, single point]	–
CC(C)C(=O)N(c1cc2sc(=O)oc2c2ccccc12)S(=O)(=O)c1cccs1	inconclusive: 35.5 µM [activator, partial curve, poor fit]	–
Cc1cccc(C#CC2=CC(=O)CC(C)(C)C2)c1	inconclusive: 31.6 µM [activator, single point]	–
Cc1csc2ncc(C(=O)NCc3ccco3)c(=O)n12	active: 11.2 µM	–
Cc1cccc(OCC(=O)Nc2cccc(C(=O)OCc3cc(=O)n4nc(C(C)C)sc4n3)c2)c1	inactive	–
O=c1oc2ccccc2n1CSc1nc2ccccc2s1	inactive	–

SMILES	Potency	activation
Cn1c(-c2ccco2)nc2cc3ccccc3cc21	inconclusive: 3.16 µM [activator, partial curve, poor fit]	–
Cc1ccc(C(=O)CCNc2ccc(Br)cc2)o1	inconclusive: 20 µM [activator, single point]	–
O=C(/C=C/Nc1cccc(C(F)(F)F)c1)c1ccco1	inconclusive: 2 µM [activator, full curve, poor fit]	–
CCOC(=O)c1c(NC(=O)CCl)sc(CN(C)C)c1-c1ccccc1	inconclusive: 31.6 µM [activator, single point]	–
CC(C)(C)c1cc(CN2CCN(CCC#N)CC2)cc(C(C)(C)C)c1O	inconclusive: 31.6 µM [activator, partial curve, poor fit]	–
COc1ccc(NC(=O)CN2C(=O)C(C)(C)c3cc(S(=O)(=O)N4CCCCC4)ccc32)cc1Cl	inactive	–
COC(=O)c1sccc1NC(=O)CCC1CCCCC1	inconclusive: 15.8 µM [activator, single point]	–
CCOC(=O)Nc1ccc(C(=O)/C=C/c2ccccc2)cc1	inconclusive: 25.1 µM [activator, single point]	–
COc1ccc(-c2noc(-c3cccc(Cl)c3)n2)cc1OC	inconclusive: 4.47 µM [activator, partial curve]	–
CSc1ccc(CNC(=O)Cn2c(-c3cccs3)cc3cc(F)ccc32)cc1	inactive	–
Cc1occc1C(=O)N/N=C/c1ccccc1[N+](=O)[O-]	inconclusive: 2 µM [activator, full curve, poor fit]	–
O=C1NC(=S)S/C1=C\C=C\c1ccc([N+](=O)[O-])o1	inconclusive: 0.501 µM [activator, partial curve, poor fit]	–
CC(Sc1ccsc1[N+](=O)[O-])C(=O)NCCc1ccc(Cl)cc1 (configuration not stated)	inconclusive: 20 µM [activator, single point]	–
Cc1ccc2oc(=O)c(S(=O)(=O)c3ccc(F)cc3)cc2c1	inconclusive: 15.8 µM [activator, partial curve, poor fit]	–
Oc1ccc(C=NN=Cc2ccco2)c(O)c1	inconclusive: 15.8 µM [activator, partial curve, poor fit]	–
CCCC(=O)Nc1nnc(-c2ccco2)s1	inconclusive: 15.8 µM [activator, partial curve, poor fit]	–
CCOC(=O)C1CCN(Cc2cc(C(C)C)c(O)c(C(C)C)c2)CC1	inconclusive: 22.4 µM [activator, single point]	–
COc1cccc(CN2CCN(CC(=O)NCCc3ccccc3)CC2)c1	inactive	–
COc1ccccc1NC(=O)/C(C#N)=C/c1cccn1C	inconclusive: 10 µM [activator, partial curve]	–
O=C(Nc1ccc(F)cc1)c1cc2ccccc2o1	inconclusive: 2.82 µM [activator, full curve, poor fit]	–
Cc1[nH][nH]c(=O)c1C(c1c(C)[nH][nH]c1=O)c1cn(Cc2ccc(Cl)c(Cl)c2)c2ccccc12	inconclusive: 28.2 µM [activator, single point]	–
COCc1cc(C)nc2sc(C(=O)Nc3ccc(OC)cc3)c(N)c12	inactive	–
O=C(N/N=C\c1ccco1)Nc1cccc(Cl)c1	active: 5.01 µM	–
COC1(OC)C(/C=C/c2ccc(C)cc2)C(C#N)(C#N)C1(OC)OC (configuration not stated)	inconclusive: 3.16 µM [activator, single point]	–
